# Data taken from PubChem BioAssay (Tox21).
# Values joined by “and” are separate entries in the source; they are usually repeats but may differ in a detail not shown here. Equal entries are not always repeated. The inconclusive results got no clear call from the source; some entries with a clear call stand among them for comparison. For some of these results: Potencies beside an inconclusive call are fits to weak or partial responses and may not hold up. Active and inactive are the calls of the source. Unless noted, calls come from the whole dose curve; as a rule, active = well fitted curve in the direction sought with a large enough effect in the repeat runs; inconclusive = weak or mixed curves; inactive = no such curve, though single readings can be large; an effect the other way counts as inactive or inconclusive.
# Columns and labels:
# [1] = qHTS assay for identifying genotoxic compounds that show differential cytotoxicity against isogenic chicken DT40 cell lines with known DNA damage response pathways - Rad54/Ku70 mutant cell line (AID 743015); settings: DT40 Rad54/Ku70 mutant viability, CellTiter-Glo, 40 h; activity change, negative = cytotoxicity: at 66.8 µM (top of the series); note: nearly all actives have a fitted effect of over 60% in size; note: potency is the fitted concentration of half-maximal effect
# [2] = target: Peroxisome proliferator-activated receptor delta (Homo sapiens) (UniProt Q03181); assay: qHTS assay to identify small molecule antagonists of the peroxisome proliferator-activated receptor delta (PPARd) signaling pathway (AID 743215; active = well fitted inhibition curve with a large enough effect in the signal ratio in the repeat runs, not every such curve was filed as active; inconclusive = weak or mixed curves, or effect the other way; inactive = no such curve, though single readings can be large or run the other way; the % refers to the signal ratio;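 note: cells stimulated with agonist L165041 at 300 nM final during compound exposure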; note: potency is the fitted concentration of half-maximal effect; for ratio activity, negative = inhibition: % is set by controls: 0 for no effect and ±100 for the full control effect); settings: HEK293H PPARd-UAS-bla, beta-lactamase FRET ratio, antagonist, 17 h
# Summary of the method: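 Antagonist-mode beta-lactamase reporter screen: HEK293H cells with UAS-bla under PPARd control, stimulated by 300 nM L165041 (final) alongside test compound for 17 h at 37 C, then FRET fluorescence after 2 h substrate incubation.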
# [3] = qHTS assay to identify small molecule agonists of the constitutive androstane receptor (CAR) signaling pathway - cell viability counter screen (AID 1224836); note: nearly all actives have a fitted effect of over 45% in size; note: potency is the fitted concentration of half-maximal effect; for viability change, negative = cytotoxic: % is set by controls: 0 for no effect and ±100 for the full control effect
# Summary of the method: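 HepG2 cells stably carrying hCAR and a CYP2B6-2.2kb reporter; 15-concentration compounds plus PK11195 (final 0.75 uM), 23 hr at 37 C/5% CO2. Viability read by CellTiter-Fluor fluorescence.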
# [4] = target: Thyrotropin receptor (Homo sapiens) (UniProt P16473); assay: qHTS assay to identify small molecule agonists of the thyroid stimulating hormone receptor (TSHR) signaling pathway (AID 1224843; calls by dose curve; note: nearly all actives have a fitted effect of over 45% in size; note: potency is the fitted concentration of half-maximal effect); settings: TSHR-HEK293 cells, cAMP HTRF, agonist mode, 30 min; activation: at 92.4 µM (top of the series) unless noted
# Summary of the method: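 TSHR-expressing HEK293 cells (800 per well) were exposed to compounds for 30 min at room temperature. cAMP was then detected by HTRF competition with cAMP-d2 and anti-cAMP cryptate, read after 1 h at room temperature. Fifteen concentrations, triplicate.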
# [5] = qHTS RealTime-Glo MT Cell Viability Assay in HEK293 cells - 32 hour (AID 1224868); note: nearly all actives have a fitted effect of over 50% in size; note: potency is the fitted concentration of half-maximal effect
# Summary of the method: (§1)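 Viability tracked continuously by luminescence as live cells reduce a prosubstrate for NanoLuc; HEK293 cells preincubated 5 h, compound-treated at 37 C, and read at 0, 8, 16, 24, 32 and 40 h.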
# [6] = qHTS assay to identify small molecule agonists of the progesterone receptor (PR) signaling pathway - cell viability counter screen (AID 1346799; calls by dose curve; note: potency is the fitted concentration of half-maximal effect; nearly all actives have a fitted effect of over 45% in size)
# Summary of the method: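 Counter screen in the PR-UAS-bla HEK293T wells (2% charcoal-stripped FBS, 16 h compound exposure at 37 C) after the bla read. CellTiter-Glo added, 30 min at room temperature, luminescence read as cell viability.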
# [7] = target: Estrogen receptor (Homo sapiens) (UniProt P03372); assay: qHTS assay to identify small molecule antagonists of the estrogen receptor alpha (ER-alpha) signaling pathway (AID 743069; active = well fitted curve in the direction sought with a large enough effect in the signal ratio in the repeat runs, not every such curve was filed as active; inconclusive = weak or mixed curves, or effect the other way; inactive = no such curve, though single readings can be large or run the other way; the % refers to the signal ratio; note: potency is the fitted concentration of half-maximal effect); settings: HEK293 ER-alpha-UAS-bla, beta-lactamase ratio, antagonist mode; activity, negative = inhibition: at 69.4 µM (top of the series) unless noted
# Summary of the method: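 HEK293 cells stably carrying an ER-alpha-UAS-bla beta-lactamase reporter were pre-cultured overnight in 2% charcoal-stripped FBS medium. Test compounds in DMSO were added together with 17beta-estradiol for 18 hr at 37C. Read-out was fluorescence after 2 hr with LiveBLAzer B/G FRET substrate at room temperature.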
# [8] = target: Nuclear receptor subfamily 1 group I member 3 (Homo sapiens) (UniProt Q14994); assay: qHTS assay to identify small molecule agonists of the constitutive androstane receptor (CAR) signaling pathway (AID 1224839); note: potency is the fitted concentration of half-maximal effect; nearly all actives have a fitted effect of over 15% in size
# Summary of the method: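 HepG2 cells stably co-transfected with hCAR and a CYP2B6-2.2kb luciferase reporter; compounds at 15 concentrations with 0.75 uM PK11195 present. After 24 hr at 37 C, luciferase read by ONE-Glo luminescence.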
# [9] = qHTS assay to identify small molecule agonists of H2AX - cell viability counter screen (AID 1224847; calls by dose curve; note: nearly all actives have a fitted effect of over 30% in size; note: potency is the fitted concentration of half-maximal effect)
# Summary of the method: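 CHO-K1 cells plated overnight at 37C, then exposed 3 h at 37C to compounds at 15 concentrations (0.76% DMSO final). Viability by CellTiter-Glo luminescence after 30 min at room temperature.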
# [10] = qHTS RealTime-Glo MT Cell Viability Assay in HEK293 cells - 24 hour (AID 1224886); note: nearly all actives have a fitted effect of over 50% in size; note: potency is the fitted concentration of half-maximal effect; for activity change, negative = cytotoxicity: top concentration of the series differs between compounds; % is set by controls: 0 for no effect and ±100 for the full control effect
# Summary of the method: as §1
# [11] = qHTS assay to identify small molecule agonists of the estrogen receptor beta (ER-beta) signaling pathway - cell viability counter screen (AID 1259380); note: nearly all actives have a fitted effect of over 30% in size; note: potency is the fitted concentration of half-maximal effect
# Summary of the method: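 Viability of ER-beta-UAS-bla HEK293T cells was determined by CellTiter-Glo luminescence following 16 hr treatment with test compounds at 37C.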
# [12] = qHTS assay to identify small molecule antagonists of the progesterone receptor (PR) signaling pathway - cell viability counter screen (AID 1346798); note: nearly all actives have a fitted effect of over 50% in size; note: potency is the fitted concentration of half-maximal effect
# Summary of the method: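 PR-UAS-bla HEK293T cells, 3,000/well in 2% charcoal-stripped FBS medium, dosed with compounds plus R5020 agonist and incubated 16 h at 37C. Viability then measured in the same wells by CellTiter-Glo luminescence after 30 min at RT.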
# [13] = target: Nuclear receptor subfamily 1 group I member 2 (Homo sapiens) (UniProt O75469); assay: Human pregnane X receptor (PXR) small molecule agonists, qHTS assay (AID 1346982); note: potency is the fitted concentration of half-maximal effect; nearly all actives have a fitted effect of over 35% in size
# Summary of the method: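 Luminescence (ONE-Glo, 30 min RT) after 24 hr compound exposure of PXR-Luc HepG2 cells; cells rested 5 hr post-plating in 5% charcoal-stripped FBS medium.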
# [14] = target: Cytochrome P450 3A4 (Homo sapiens) (UniProt P08684); assay: Cytochrome P450 Family 3 Subfamily A Member 4 (CYP3A4) small molecule antagonists: luciferase reporter qHTS assay (AID 1671201); note: % is set by controls: 0 for no effect and ±100 for the full control effect; nearly all actives have a fitted effect of over 50% in size
# Summary of the method: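 P450-Glo CYP3A4 luminescent assay: compounds preincubated 10 min at room temperature with enzyme and proluciferin substrate, NADPH regeneration added, 1 h room-temperature reaction, stopped with luciferin detection reagent; luminescence read after 20 min. Ketoconazole positive control.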
# [15] = qHTS assay for small molecule agonists of the p53 signaling pathway (AID 651631; calls by dose curve; note: nearly all actives have a fitted effect of over 15% in size; note: potency is the fitted concentration of half-maximal effect); settings: HCT-116 p53RE-bla reporter, beta-lactamase FRET ratio, 16 h; activation: at 73.3 µM (top of the series) unless noted
# Summary of the method: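 HCT-116 cells carrying a beta-lactamase reporter under p53 response elements were dosed with compound for 16 h at 37 °C. LiveBLAzer B/G FRET substrate was then added for 2 h at room temperature, and fluorescence intensity was read to detect pathway agonism.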
# [16] = qHTS RealTime-Glo MT Cell Viability Assay in HEK293 cells - 16 hour (AID 1224872); note: nearly all actives have a fitted effect of over 50% in size; note: potency is the fitted concentration of half-maximal effect; for activity change, negative = cytotoxicity: top concentration of the series differs between compounds; % is set by controls: 0 for no effect and ±100 for the full control effect
# Summary of the method: as §1
# [17] = qHTS assay to identify small molecule agonists of the farnesoid-X-receptor (FXR) signaling pathway - cell viability counter screen (AID 743218); settings: FXR-bla HEK293T viability, CellTiter-Glo luminescence, 16 h; viability change, negative = cytotoxic: at 62.6 µM (top of the series); note: nearly all actives have a fitted effect of over 45% in size; note: potency is the fitted concentration of half-maximal effect
# Summary of the method: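 In GeneBLAzer FXR-UAS-bla HEK 293T cells, compounds act for 16 h at 37 C. Cell viability is then scored in the reporter wells by CellTiter-Glo, 30 min at RT, luminescence.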
# [18] = target: Estrogen receptor beta (Homo sapiens) (UniProt Q92731); assay: qHTS assay to identify small molecule agonists of the estrogen receptor beta (ER-beta) signaling pathway (AID 1259377; active = well fitted activation curve with a large enough effect in the signal ratio in the repeat runs, not every such curve was filed as active; inconclusive = weak or mixed curves, or effect the other way; the % refers to the signal ratio; note: potency is the fitted concentration of half-maximal effect); settings: ER-beta-UAS-bla HEK293T, beta-lactamase FRET ratio, 16 h; activation: at 92.4 µM (top of the series) unless noted
# Summary of the method: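 ER-beta-UAS-bla HEK293T cells in medium with 2% charcoal-stripped FBS were exposed to compounds for 16 h at 37C. Beta-lactamase reporter activity was read as fluorescence after 2 h with LiveBLAzer B/G FRET substrate at room temperature.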
# [19] = qHTS assay to identify small molecule antagonists of the vitamin D receptor (VDR) signaling pathway - cell viability counter screen (AID 743225); settings: VDR-bla HEK293T viability, CellTiter-Glo luminescence, 16 h; viability change, negative = cytotoxic: at 61 µM (top of the series) unless noted; note: nearly all actives have a fitted effect of over 50% in size; note: potency is the fitted concentration of half-maximal effect
# Summary of the method: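 VDR-UAS-bla HEK 293T cells were plated and incubated 4 h at 37C, then dosed with compound plus 3 nM (final) 1-alpha,25-dihydroxyvitamin D3 for 16 h. After the 2 h beta-lactamase read, viability in the same wells was read as CellTiter-Glo luminescence after 30 min at room temperature.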
# [20] = qHTS assay to identify small molecule antagonists of the sonic hedgehog signaling (Shh) pathway (AID 1259369; calls by dose curve; note: nearly all actives have a fitted effect of over 45% in size; note: potency is the fitted concentration of half-maximal effect)
# Summary of the method: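 Screening used 3T3Gli1-Luc cells at 2,000 per well, compounds delivered in DMSO, and conditioned medium as agonist stimulus; plates incubated 24hr at 37 C and 5% CO2 before a 30min luciferase step.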
# [21] = ratio activity, negative = inhibition: at 62 µM (top of the series) unless noted
# Tags give direction and shape of the fitted curve or compound fluorescence and quenching.
# UniProt Q14994, sequence (Q14994 whole entry, looked up): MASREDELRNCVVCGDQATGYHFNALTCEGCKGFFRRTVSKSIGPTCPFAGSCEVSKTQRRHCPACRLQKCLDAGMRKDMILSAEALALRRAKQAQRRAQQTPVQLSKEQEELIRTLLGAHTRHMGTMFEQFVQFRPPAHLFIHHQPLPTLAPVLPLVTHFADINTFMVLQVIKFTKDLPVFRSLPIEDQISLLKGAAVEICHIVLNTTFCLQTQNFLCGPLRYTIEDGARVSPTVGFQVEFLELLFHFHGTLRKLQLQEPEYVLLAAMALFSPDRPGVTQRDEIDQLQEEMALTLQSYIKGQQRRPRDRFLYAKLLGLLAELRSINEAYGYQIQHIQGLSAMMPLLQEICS
# UniProt P03372, sequence (P03372 whole entry, looked up): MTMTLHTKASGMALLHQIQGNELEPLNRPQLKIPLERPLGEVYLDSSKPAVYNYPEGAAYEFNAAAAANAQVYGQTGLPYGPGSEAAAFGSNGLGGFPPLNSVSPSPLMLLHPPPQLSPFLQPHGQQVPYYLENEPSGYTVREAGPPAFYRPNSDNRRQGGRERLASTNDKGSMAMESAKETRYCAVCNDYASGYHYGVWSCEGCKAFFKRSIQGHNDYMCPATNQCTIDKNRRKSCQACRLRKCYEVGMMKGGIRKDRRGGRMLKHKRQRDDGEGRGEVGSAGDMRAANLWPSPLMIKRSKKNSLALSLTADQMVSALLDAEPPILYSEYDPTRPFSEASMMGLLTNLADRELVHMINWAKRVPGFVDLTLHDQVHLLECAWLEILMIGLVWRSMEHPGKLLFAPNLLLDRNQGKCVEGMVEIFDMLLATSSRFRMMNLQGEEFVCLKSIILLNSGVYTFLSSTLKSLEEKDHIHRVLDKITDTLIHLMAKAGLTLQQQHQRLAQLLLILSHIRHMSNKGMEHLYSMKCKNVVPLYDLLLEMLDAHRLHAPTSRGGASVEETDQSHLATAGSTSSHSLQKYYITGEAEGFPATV
# UniProt P16473, sequence (P16473 whole entry, looked up): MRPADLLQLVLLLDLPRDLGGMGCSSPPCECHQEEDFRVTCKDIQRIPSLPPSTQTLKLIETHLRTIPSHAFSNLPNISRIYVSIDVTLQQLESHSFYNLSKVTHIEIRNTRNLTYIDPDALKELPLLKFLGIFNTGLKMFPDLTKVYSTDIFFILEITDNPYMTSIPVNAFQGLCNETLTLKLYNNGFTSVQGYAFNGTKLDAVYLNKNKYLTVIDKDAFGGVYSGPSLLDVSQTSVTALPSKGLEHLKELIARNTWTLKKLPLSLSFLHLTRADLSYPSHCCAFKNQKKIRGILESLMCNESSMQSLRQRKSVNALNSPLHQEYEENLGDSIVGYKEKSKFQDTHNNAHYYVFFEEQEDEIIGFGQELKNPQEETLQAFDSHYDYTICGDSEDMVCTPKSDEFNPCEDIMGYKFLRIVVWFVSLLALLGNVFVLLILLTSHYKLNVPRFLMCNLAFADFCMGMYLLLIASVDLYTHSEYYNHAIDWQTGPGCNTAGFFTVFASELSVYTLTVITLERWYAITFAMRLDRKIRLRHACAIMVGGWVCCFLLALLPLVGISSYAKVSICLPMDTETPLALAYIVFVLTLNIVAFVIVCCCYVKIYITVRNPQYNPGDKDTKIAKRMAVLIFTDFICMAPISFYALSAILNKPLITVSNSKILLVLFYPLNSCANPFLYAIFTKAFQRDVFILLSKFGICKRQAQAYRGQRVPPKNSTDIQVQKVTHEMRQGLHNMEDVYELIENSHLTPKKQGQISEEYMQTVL
# UniProt Q03181, sequence (Q03181 whole entry, looked up): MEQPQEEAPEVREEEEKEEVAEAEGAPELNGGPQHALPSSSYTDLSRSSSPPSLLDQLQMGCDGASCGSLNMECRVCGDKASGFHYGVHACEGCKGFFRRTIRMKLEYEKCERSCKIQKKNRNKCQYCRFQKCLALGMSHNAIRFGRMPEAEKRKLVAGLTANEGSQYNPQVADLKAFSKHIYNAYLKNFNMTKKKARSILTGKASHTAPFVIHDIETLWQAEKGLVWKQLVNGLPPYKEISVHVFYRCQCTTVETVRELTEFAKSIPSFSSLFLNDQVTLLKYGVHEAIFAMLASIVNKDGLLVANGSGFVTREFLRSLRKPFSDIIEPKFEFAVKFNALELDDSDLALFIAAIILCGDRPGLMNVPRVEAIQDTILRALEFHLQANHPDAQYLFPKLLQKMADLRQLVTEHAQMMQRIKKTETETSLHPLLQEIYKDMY
# UniProt O75469, sequence (O75469 whole entry, looked up): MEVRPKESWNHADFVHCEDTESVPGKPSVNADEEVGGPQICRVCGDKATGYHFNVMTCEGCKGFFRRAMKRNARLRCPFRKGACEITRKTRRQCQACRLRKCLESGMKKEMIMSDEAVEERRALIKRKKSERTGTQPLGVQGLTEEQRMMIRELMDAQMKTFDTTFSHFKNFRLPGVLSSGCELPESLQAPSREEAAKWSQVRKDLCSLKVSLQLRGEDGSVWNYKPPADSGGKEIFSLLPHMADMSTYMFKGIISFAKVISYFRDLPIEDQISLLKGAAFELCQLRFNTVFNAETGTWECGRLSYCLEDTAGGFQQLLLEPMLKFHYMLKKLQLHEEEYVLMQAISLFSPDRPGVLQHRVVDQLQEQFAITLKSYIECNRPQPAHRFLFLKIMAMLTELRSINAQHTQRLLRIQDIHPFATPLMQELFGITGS
# UniProt P08684, sequence (P08684 whole entry, looked up): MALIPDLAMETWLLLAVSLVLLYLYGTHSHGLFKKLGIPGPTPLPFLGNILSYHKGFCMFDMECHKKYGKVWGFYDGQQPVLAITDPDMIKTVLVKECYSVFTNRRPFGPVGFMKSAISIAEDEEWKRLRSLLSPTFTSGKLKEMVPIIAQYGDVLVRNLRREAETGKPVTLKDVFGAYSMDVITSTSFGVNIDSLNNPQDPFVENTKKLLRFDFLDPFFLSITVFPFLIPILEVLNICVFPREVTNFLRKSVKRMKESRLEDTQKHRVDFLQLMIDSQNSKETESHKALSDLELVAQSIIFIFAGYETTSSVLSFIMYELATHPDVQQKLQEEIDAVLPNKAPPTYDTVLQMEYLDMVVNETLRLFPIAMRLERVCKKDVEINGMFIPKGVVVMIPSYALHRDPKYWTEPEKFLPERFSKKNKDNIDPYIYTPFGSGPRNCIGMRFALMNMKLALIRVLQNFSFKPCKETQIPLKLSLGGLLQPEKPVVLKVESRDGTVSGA
# UniProt Q92731, sequence (Q92731 whole entry, looked up): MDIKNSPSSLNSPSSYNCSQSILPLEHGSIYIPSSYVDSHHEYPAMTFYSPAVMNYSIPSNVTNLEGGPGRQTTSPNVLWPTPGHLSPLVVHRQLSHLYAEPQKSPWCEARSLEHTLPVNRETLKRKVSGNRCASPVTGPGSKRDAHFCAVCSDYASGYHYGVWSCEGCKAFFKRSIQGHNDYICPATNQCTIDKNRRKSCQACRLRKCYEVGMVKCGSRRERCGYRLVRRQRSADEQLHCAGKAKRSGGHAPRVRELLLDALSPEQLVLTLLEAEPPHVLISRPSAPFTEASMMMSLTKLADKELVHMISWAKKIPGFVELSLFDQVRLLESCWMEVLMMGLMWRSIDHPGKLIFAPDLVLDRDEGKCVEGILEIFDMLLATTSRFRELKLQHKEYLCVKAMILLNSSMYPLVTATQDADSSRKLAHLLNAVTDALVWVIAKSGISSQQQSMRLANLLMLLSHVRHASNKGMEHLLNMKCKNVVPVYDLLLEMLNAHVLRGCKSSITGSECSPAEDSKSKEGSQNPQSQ
compound,measurement,setting,value
CCOP(=S)(OCC)Oc1cc(-c2ccccc2)on1,Potency,[1],active: 68.6 µM
same,"ratio activity, negative = inhibition",[2]; [21],inconclusive: -28%
same,Potency,[3],inactive
same,Potency,[4],"inconclusive: 12.2 µM [inhibitor, partial curve, poor fit]"
same,Potency,[5],inactive
same,Potency,[6],"inconclusive: 0.0486 µM [rising, full curve, poor fit]"
CNC(=O)Oc1cc(C)cc(C(C)C)c1,Potency,[7],"inconclusive: 30.9 µM [activator, partial curve]"
same,Potency,[8],"inconclusive: 54.5 µM [activator, partial curve, poor fit]"
same,Potency,[9],"inconclusive: 127 µM [cytotoxic, partial curve, poor fit]"
same,Potency,[10],inactive
same,Potency,[11],"inconclusive: 68.6 µM [cytotoxic, partial curve, poor fit]"
same,Potency,[12],"inconclusive: 48.6 µM [cytotoxic, partial curve, poor fit]"
same,Potency,[13],"inconclusive: 38.6 µM [activator, partial curve]"
same,Potency,[14],inactive
Nc1ccc(Cc2ccc(N)cc2)cc1,Potency,[15],"inconclusive: 75.7 µM [activator, partial curve, poor fit]"
same,Potency,[8],"inconclusive: 67.5 µM [activator, partial curve] and inconclusive: 54.5 µM [activator, partial curve]"
same,Potency,[16],inactive
same,Potency,[11],"inconclusive: 26.9 µM [cytotoxic, partial curve] and inconclusive: 61.1 µM [cytotoxic, partial curve]"
COc1ccc2c(C(=O)c3ccc(Cl)cc3)c(C)n(CC(=O)O)c2c1,Potency,[15],inactive
same,Potency,[17],"inconclusive: 3.35 µM [rising, full curve]"
same,Potency,[16],inactive
same,Potency,[12],inactive
COP(=S)(OC)Oc1c(Cl)cc(C)cc1Cl,activation,[15],inconclusive: 6.37%
same,Potency,[1],"inconclusive: 61.1 µM [cytotoxic, partial curve]"
same,Potency,[7],inactive
same,Potency,[8],active: 27.3 µM
same,Potency,[4],"inconclusive: 2.73 µM [falling, single point]"
same,Potency,[5],inactive
same,Potency,[10],inactive
same,Potency,[12],"inconclusive: 38.6 µM [rising, partial curve, poor fit]"
same,Potency,[6],"inconclusive: 54.5 µM [rising, partial curve]"
same,Potency,[13],active: 24.3 µM
COc1ccc2c(c1OC)C(=O)O[C@H]2[C@@H]1c2cc3c(cc2CCN1C)OCO3,Potency,[3],"inconclusive: 5.31 µM [cytotoxic, full curve]"
same,Potency,[13],"inconclusive: 33.5 µM [activator, partial curve, poor fit]"
CCCCOC(=O)c1ccccc1C(=O)O,Potency,[2]; [21],"inconclusive: 0.347 µM [fluorescent, full curve, poor fit]"
same,Potency,[3],inactive
same,Potency,[11],"inconclusive: 77 µM [cytotoxic, single point]"
same,Potency,[12],"inconclusive: 0.217 µM [cytotoxic, single point]"
same,Potency,[14],inactive
CNC(=O)Oc1cccc(C(C)C)c1,Potency,[8],"inconclusive: 34.4 µM [activator, partial curve]"
same,Potency,[9],"inconclusive: 1.42 µM [cytotoxic, single point]"
same,Potency,[11],inactive
CNC(=O)Oc1cccc(N=CN(C)C)c1,Potency,[1],"inconclusive: 68.6 µM [cytotoxic, single point]"
same,Potency,[7],"inconclusive: 43.6 µM [activator, partial curve, poor fit]"
same,Potency,[9],inactive
same,Potency,[16],inactive
same,Potency,[18],"inconclusive: 6.11 µM [rising, full curve]"
same,Potency,[6],"inconclusive: 30.6 µM [cytotoxic, full curve, poor fit]"
O=c1[nH]c2ccccc2c(=O)o1,Potency,[1],inactive
same,"ratio activity, negative = inhibition",[2]; at 80.4 µM (top of the series),inactive: 4.05%
same,"ratio activity, negative = inhibition",[2]; [21],inconclusive: 1.7%
same,Potency,[4],inactive
same,Potency,[5],"inconclusive: 0.198 µM [cytotoxic, single point]"
same,Potency,[10],"inconclusive: 0.198 µM [cytotoxic, single point]"
same,Potency,[12],"inconclusive: 15.4 µM [cytotoxic, single point]"
CCOC(=O)C(c1c(O)c2ccccc2oc1=O)c1c(O)c2ccccc2oc1=O,Potency,[2]; [21],inactive
same,Potency,[17],inactive
same,Potency,[19],"inconclusive: 26.8 µM [cytotoxic, single point]"
same,Potency,[9],"inconclusive: 55.2 µM [rising, single point]"
same,Potency,[20],"inconclusive: 0.298 µM [inhibitor, single point]"
same,Potency,[11],"inconclusive: 26.6 µM [cytotoxic, single point]"
same,Potency,[6],"inconclusive: 2.98 µM [cytotoxic, full curve, poor fit]"
same,Potency,[13],"inconclusive: 23.7 µM [activator, partial curve]"
CC(C)(C)OC(=O)c1ncn2c1[C@@H]1CCCN1C(=O)c1c(Br)cccc1-2,Potency,[1],"inconclusive: 33.5 µM [cytotoxic, single point]"
same,"ratio activity, negative = inhibition",[2]; [21],inconclusive: 7.21%
same,Potency,[19],inactive
same,Potency,[16],"inconclusive: 21.3 µM [cytotoxic, partial curve, poor fit]"
same,Potency,[20],inactive
same,Potency,[11],"inconclusive: 29.8 µM [cytotoxic, single point]"
[As]#[In],Potency,[5],"inconclusive: 54.9 µM [rising, single point]"
same,Potency,[16],"inconclusive: 54.9 µM [rising, partial curve, poor fit]"
same,Potency,[10],"inconclusive: 54.9 µM [rising, partial curve, poor fit]"
same,Potency,[20],"inconclusive: 68.6 µM [inhibitor, single point]"
